Test results as given in the supplement of paper PMC9151546.
Where a name gives a salt, the structure may show the parent alone. Most values come without repeats; read them as rough.

What was measured:
CHO-K1 [1] = assay: micronucleus frequency (% of nucleated events); higher = more micronuclei (genotoxic)
CHO-K1 [2] = assay: hypodiploid nuclei frequency (% of nucleated events); higher = more hypodiploid events (aneugenic)
CHO-K1 [3] = assay: relative survival (nuclei to bead ratio vs DMSO control) (% of vehicle control); higher = more surviving cells
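For hypodiploid nuclei frequency (% of nucleated events) in this document: hypodiploid nuclei gated on a flow cytometer with 488 nm excitation after SYTOX Green staining, cultures at 37 °C, positive controls vinblastine without S9 and cyclophosphamide with S9.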
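For micronucleus frequency (% of nucleated events) in this document: cells lysed with nuclei stained by SYTOX Green, then micronucleus-gated events counted against nucleated events by flow cytometry with 488 nm excitation.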
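For relative survival (nuclei to bead ratio vs DMSO control) in this document: Lysed-cell nuclei stained with SYTOX Green and counted against counting beads by flow cytometry at 488 nm excitation, with vinblastine (no S9) and cyclophosphamide (plus S9) as positive controls.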

O=C(c1ccc(OCCN2CCCCC2)cc1)c1c(-c2ccc(O)cc2)sc2cc(O)ccc12 [Raloxifene hydrochloride]
Settings	hypodiploid nuclei frequency, CHO-K1 [2] [%]	micronucleus frequency, CHO-K1 [1] [%]	relative survival, CHO-K1 [3]
concentration: 4.5 (µM), S9 metabolic activation: with S9, exposure time: 3-4 hours	0.16	1.06	124
concentration: 4.5 (µM), S9 metabolic activation: without S9, exposure time: 24 hours	0.5	1.64	128
concentration: 5.63 (µM), S9 metabolic activation: with S9, exposure time: 3-4 hours	0.24	1.28	115
concentration: 5.63 (µM), S9 metabolic activation: without S9, exposure time: 24 hours	0.54	1.36	106
concentration: 7.04 (µM), S9 metabolic activation: with S9, exposure time: 3-4 hours	0.18	1.46	116
concentration: 7.04 (µM), S9 metabolic activation: without S9, exposure time: 24 hours	0.58	1.98	118
concentration: 8.8 (µM), S9 metabolic activation: with S9, exposure time: 3-4 hours	0.22	1.74	110
concentration: 8.8 (µM), S9 metabolic activation: without S9, exposure time: 24 hours	0.6	1.98	97.9
concentration: 11 (µM), S9 metabolic activation: with S9, exposure time: 3-4 hours	0.2	1.38	95.4
concentration: 11 (µM), S9 metabolic activation: without S9, exposure time: 24 hours	0.64	2	106
concentration: 13.7 (µM), S9 metabolic activation: with S9, exposure time: 3-4 hours	0.32	1.26	98.7
concentration: 13.7 (µM), S9 metabolic activation: without S9, exposure time: 24 hours	0.8	1.94	102
concentration: 17.2 (µM), S9 metabolic activation: with S9, exposure time: 3-4 hours	0.22	1.14	79.8
concentration: 17.2 (µM), S9 metabolic activation: without S9, exposure time: 24 hours	0.72	1.74	102
concentration: 21.5 (µM), S9 metabolic activation: with S9, exposure time: 3-4 hours	0.18	1.04	90.1
concentration: 21.5 (µM), S9 metabolic activation: without S9, exposure time: 24 hours	0.74	2.18	91.9
concentration: 26.8 (µM), S9 metabolic activation: with S9, exposure time: 3-4 hours	0.24	1.3	141
concentration: 26.8 (µM), S9 metabolic activation: without S9, exposure time: 24 hours	5.4	2.08	75.4
concentration: 33.6 (µM), S9 metabolic activation: with S9, exposure time: 3-4 hours	0.38	1.08	104
concentration: 33.6 (µM), S9 metabolic activation: without S9, exposure time: 24 hours	2.64	2.58	112
concentration: 41.9 (µM), S9 metabolic activation: with S9, exposure time: 3-4 hours	0.3	1.64	112
concentration: 41.9 (µM), S9 metabolic activation: without S9, exposure time: 24 hours	5.94	3.76	87
concentration: 52.4 (µM), S9 metabolic activation: with S9, exposure time: 3-4 hours	0.3	1.4	91.2
concentration: 52.4 (µM), S9 metabolic activation: without S9, exposure time: 24 hours	11.7	5.58	60.5
concentration: 65.5 (µM), S9 metabolic activation: with S9, exposure time: 3-4 hours	0.4	1.42	69.4
concentration: 65.5 (µM), S9 metabolic activation: without S9, exposure time: 24 hours	5.91	7.81	40.6
concentration: 81.9 (µM), S9 metabolic activation: with S9, exposure time: 3-4 hours	0.28	2.16	50.1
concentration: 81.9 (µM), S9 metabolic activation: without S9, exposure time: 24 hours	–	–	37.3
concentration: 102 (µM), S9 metabolic activation: with S9, exposure time: 3-4 hours	0.22	2.87	43.6
concentration: 102 (µM), S9 metabolic activation: without S9, exposure time: 24 hours	–	–	35.4
concentration: 128 (µM), S9 metabolic activation: with S9, exposure time: 3-4 hours	0.3	5.2	42.9
concentration: 128 (µM), S9 metabolic activation: without S9, exposure time: 24 hours	–	–	5.8
concentration: 160 (µM), S9 metabolic activation: with S9, exposure time: 3-4 hours	–	–	10.1
concentration: 160 (µM), S9 metabolic activation: without S9, exposure time: 24 hours	–	–	0.01
concentration: 200 (µM), S9 metabolic activation: with S9, exposure time: 3-4 hours	–	–	1.08
concentration: 200 (µM), S9 metabolic activation: without S9, exposure time: 24 hours	–	–	0.35

CO[C@H]1/C=C/O[C@@]2(C)Oc3c(C)c(O)c4c(O)c(c(/C=N/N5CCN(C)CC5)c(O)c4c3C2=O)NC(=O)/C(C)=C\C=C\[C@H](C)[C@H](O)[C@@H](C)[C@@H](O)[C@@H](C)[C@H](OC(C)=O)[C@@H]1C [Rifampicin]
Settings	hypodiploid nuclei frequency, CHO-K1 [2] [%]	micronucleus frequency, CHO-K1 [1] [%]	relative survival, CHO-K1 [3]
concentration: 2.81 (µM), S9 metabolic activation: with S9, exposure time: 3-4 hours	0.34	1.6	124
concentration: 2.81 (µM), S9 metabolic activation: without S9, exposure time: 24 hours	0.42	1.88	117
concentration: 3.52 (µM), S9 metabolic activation: with S9, exposure time: 3-4 hours	0.48	3.4	117
concentration: 3.52 (µM), S9 metabolic activation: without S9, exposure time: 24 hours	0.52	2.14	110
concentration: 4.4 (µM), S9 metabolic activation: with S9, exposure time: 3-4 hours	0.32	1.9	121
concentration: 4.4 (µM), S9 metabolic activation: without S9, exposure time: 24 hours	0.56	2.36	117
concentration: 5.5 (µM), S9 metabolic activation: with S9, exposure time: 3-4 hours	0.2	1.6	96.7
concentration: 5.5 (µM), S9 metabolic activation: without S9, exposure time: 24 hours	0.56	2.08	120
concentration: 6.9 (µM), S9 metabolic activation: with S9, exposure time: 3-4 hours	0.2	1.92	124
concentration: 6.9 (µM), S9 metabolic activation: without S9, exposure time: 24 hours	0.58	2.34	125
concentration: 8.6 (µM), S9 metabolic activation: with S9, exposure time: 3-4 hours	0.34	2.16	113
concentration: 8.6 (µM), S9 metabolic activation: without S9, exposure time: 24 hours	0.36	2.54	103
concentration: 10.7 (µM), S9 metabolic activation: with S9, exposure time: 3-4 hours	0.18	1.44	134
concentration: 10.7 (µM), S9 metabolic activation: without S9, exposure time: 24 hours	0.32	1.86	124
concentration: 13.4 (µM), S9 metabolic activation: with S9, exposure time: 3-4 hours	0.3	1.42	114
concentration: 13.4 (µM), S9 metabolic activation: without S9, exposure time: 24 hours	0.56	1.68	97.2
concentration: 16.8 (µM), S9 metabolic activation: with S9, exposure time: 3-4 hours	0.26	2	98.7
concentration: 16.8 (µM), S9 metabolic activation: without S9, exposure time: 24 hours	0.5	1.34	104
concentration: 21 (µM), S9 metabolic activation: with S9, exposure time: 3-4 hours	0.14	1.8	93.3
concentration: 21 (µM), S9 metabolic activation: without S9, exposure time: 24 hours	0.62	2.16	92.9
concentration: 26.2 (µM), S9 metabolic activation: with S9, exposure time: 3-4 hours	0.22	1.72	107
concentration: 26.2 (µM), S9 metabolic activation: without S9, exposure time: 24 hours	0.68	2.08	90.4
concentration: 32.8 (µM), S9 metabolic activation: with S9, exposure time: 3-4 hours	0.34	2.3	98.7
concentration: 32.8 (µM), S9 metabolic activation: without S9, exposure time: 24 hours	0.62	1.18	96
concentration: 41 (µM), S9 metabolic activation: with S9, exposure time: 3-4 hours	0.32	2.5	92.9
concentration: 41 (µM), S9 metabolic activation: without S9, exposure time: 24 hours	0.44	1.74	78.2
concentration: 51.2 (µM), S9 metabolic activation: with S9, exposure time: 3-4 hours	0.18	1.68	68
concentration: 51.2 (µM), S9 metabolic activation: without S9, exposure time: 24 hours	0.76	2.22	88.7
concentration: 64 (µM), S9 metabolic activation: with S9, exposure time: 3-4 hours	0.22	3	117
concentration: 64 (µM), S9 metabolic activation: without S9, exposure time: 24 hours	0.84	4.06	76.2
concentration: 80 (µM), S9 metabolic activation: with S9, exposure time: 3-4 hours	0.26	2.66	87.5
concentration: 80 (µM), S9 metabolic activation: without S9, exposure time: 24 hours	0.88	2.96	76.7
concentration: 100 (µM), S9 metabolic activation: with S9, exposure time: 3-4 hours	0.3	1.92	90.5
concentration: 100 (µM), S9 metabolic activation: without S9, exposure time: 24 hours	1.18	3.24	72.4
concentration: 125 (µM), S9 metabolic activation: with S9, exposure time: 3-4 hours	0.1	1.6	92.6
concentration: 125 (µM), S9 metabolic activation: without S9, exposure time: 24 hours	1.16	3.52	68.5

O=C(O)c1cc(/N=N/c2ccc(S(=O)(=O)Nc3ccccn3)cc2)ccc1O [Sulfasalazine]
Settings	hypodiploid nuclei frequency, CHO-K1 [2] [%]	micronucleus frequency, CHO-K1 [1] [%]	relative survival, CHO-K1 [3]
concentration: 4.5 (µM), S9 metabolic activation: with S9, exposure time: 3-4 hours	0.26	0.92	130
concentration: 4.5 (µM), S9 metabolic activation: without S9, exposure time: 24 hours	0.66	1.34	109
concentration: 5.63 (µM), S9 metabolic activation: with S9, exposure time: 3-4 hours	0.2	1	104
concentration: 5.63 (µM), S9 metabolic activation: without S9, exposure time: 24 hours	0.46	1.24	93.6
concentration: 7.04 (µM), S9 metabolic activation: with S9, exposure time: 3-4 hours	0.28	1.18	92.7
concentration: 7.04 (µM), S9 metabolic activation: without S9, exposure time: 24 hours	0.46	1.08	113
concentration: 8.8 (µM), S9 metabolic activation: with S9, exposure time: 3-4 hours	0.26	0.88	112
concentration: 8.8 (µM), S9 metabolic activation: without S9, exposure time: 24 hours	0.72	1.12	102
concentration: 11 (µM), S9 metabolic activation: with S9, exposure time: 3-4 hours	0.22	1.48	89.3
concentration: 11 (µM), S9 metabolic activation: without S9, exposure time: 24 hours	0.66	1.96	85.6
concentration: 13.7 (µM), S9 metabolic activation: with S9, exposure time: 3-4 hours	0.2	1.14	93.8
concentration: 13.7 (µM), S9 metabolic activation: without S9, exposure time: 24 hours	0.58	1.38	86.6
concentration: 17.2 (µM), S9 metabolic activation: with S9, exposure time: 3-4 hours	0.12	1.28	117
concentration: 17.2 (µM), S9 metabolic activation: without S9, exposure time: 24 hours	0.52	1.5	91.5
concentration: 21.5 (µM), S9 metabolic activation: with S9, exposure time: 3-4 hours	0.2	1.34	98.2
concentration: 21.5 (µM), S9 metabolic activation: without S9, exposure time: 24 hours	0.46	1.7	129
concentration: 26.8 (µM), S9 metabolic activation: with S9, exposure time: 3-4 hours	0.16	1.1	123
concentration: 26.8 (µM), S9 metabolic activation: without S9, exposure time: 24 hours	0.66	1.16	100
concentration: 33.6 (µM), S9 metabolic activation: with S9, exposure time: 3-4 hours	0.24	1.42	135
concentration: 33.6 (µM), S9 metabolic activation: without S9, exposure time: 24 hours	0.5	1.42	86.6
concentration: 41.9 (µM), S9 metabolic activation: with S9, exposure time: 3-4 hours	0.2	1.54	128
concentration: 41.9 (µM), S9 metabolic activation: without S9, exposure time: 24 hours	0.66	1.54	89.9
concentration: 52.4 (µM), S9 metabolic activation: with S9, exposure time: 3-4 hours	0.22	1.12	121
concentration: 52.4 (µM), S9 metabolic activation: without S9, exposure time: 24 hours	0.54	1.36	101
concentration: 65.5 (µM), S9 metabolic activation: with S9, exposure time: 3-4 hours	0.24	1.42	112
concentration: 65.5 (µM), S9 metabolic activation: without S9, exposure time: 24 hours	0.62	1.6	103
concentration: 81.9 (µM), S9 metabolic activation: with S9, exposure time: 3-4 hours	0.16	1.12	121
concentration: 81.9 (µM), S9 metabolic activation: without S9, exposure time: 24 hours	0.6	1.64	84.3
concentration: 102 (µM), S9 metabolic activation: with S9, exposure time: 3-4 hours	0.22	1.62	121
concentration: 102 (µM), S9 metabolic activation: without S9, exposure time: 24 hours	0.6	1.66	94.7
concentration: 128 (µM), S9 metabolic activation: with S9, exposure time: 3-4 hours	0.2	1.5	90.5
concentration: 128 (µM), S9 metabolic activation: without S9, exposure time: 24 hours	0.62	1.44	87.5
concentration: 160 (µM), S9 metabolic activation: with S9, exposure time: 3-4 hours	0.16	1.26	68.5
concentration: 160 (µM), S9 metabolic activation: without S9, exposure time: 24 hours	0.98	1.96	87
concentration: 200 (µM), S9 metabolic activation: with S9, exposure time: 3-4 hours	0.1	1.12	95.6
concentration: 200 (µM), S9 metabolic activation: without S9, exposure time: 24 hours	1.24	1.68	89
